Source: PubChem BioAssay AID2675 (National Center for Advancing Translational Sciences (NCATS), 2010)
About 100 (0.036%) of roughly 280,000 compounds were called active. Inconclusive means that the source gave no clear call. Such entries were picked first, then a sample of the others. The call rests on the fitted dose curve; in most records, active means well fitted inhibition curve with a large enough effect in the signal ratio, with a control signal flat (not every such curve was filed as active); inconclusive means small, poorly fitted or top-dose-only effect, or effect the other way, or a change in a side signal; inactive means no such curve, though single readings can be large or run the other way; the % refers to the signal ratio. A potency beside an inconclusive call is a rough fit, not a confirmed value. “Side channel” marks fits to a control or component signal instead of the main read-out.
On the % scale 0 is the no-effect control and ±100 the full control effect; potency means the concentration at half of the fitted maximal effect; tags describe the fitted curve by direction and shape or compound fluorescence and quenching.

These molecules were tested against Muscleblind-like protein 1 (Homo sapiens) (UniProt Q9NR56) (assay: qHTS Assay for Inhibitors of MBNL1-poly(CUG) RNA binding). Conditions: TR-FRET MBNL1-His/biotin-(CUG)12 binding, 665/545 ratio; activity change, negative = inhibition: at 57.5 µM (top of the series).
UniProt Q9NR56, sequence (Q9NR56 whole entry, looked up): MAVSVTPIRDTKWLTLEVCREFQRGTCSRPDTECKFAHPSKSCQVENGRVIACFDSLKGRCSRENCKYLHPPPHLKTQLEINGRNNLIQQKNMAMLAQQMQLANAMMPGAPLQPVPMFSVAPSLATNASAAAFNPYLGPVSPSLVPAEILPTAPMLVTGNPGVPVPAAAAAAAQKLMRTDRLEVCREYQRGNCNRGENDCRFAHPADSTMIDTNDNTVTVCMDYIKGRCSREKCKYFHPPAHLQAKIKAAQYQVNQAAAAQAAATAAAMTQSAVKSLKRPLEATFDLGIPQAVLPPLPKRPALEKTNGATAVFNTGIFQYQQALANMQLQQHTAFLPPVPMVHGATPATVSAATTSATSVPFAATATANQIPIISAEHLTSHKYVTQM
Method in brief: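 MBNL1-His + Biotin-(CUG)12, cpd titration 92 nM–58 uM; Tb anti-His Ab 0.055 ng/ul, SA-XL665 5 nM (final); 60 min RT; ratiometric 665/545 nm, Ex 340 nm; normalized to buffer and full-complex controls.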
In the case of `CCOc1ccc(CN2C(=O)c3ccccc3C2=O)cc1C(=O)O`, the Potency is reported as inconclusive: 22.4 µM [quencher, side channel, single point].
In the case of `CCCC(=O)Nc1ccc2c(c1)C(=O)NC2=O`, the Potency is reported as inconclusive: 39.8 µM [quencher, single point].
`COC(=O)c1cc[n+](CC(=O)c2ccccc2)cc1` was tested, and the Potency was inconclusive: 14.1 µM [quencher, side channel, partial curve].
`N/C(Cc1ccc([N+](=O)[O-])cc1)=N\OC(=O)c1ccccc1F` was tested, and the Potency was inconclusive: 20 µM [quencher, side channel, partial curve].
In the case of `CN(C)/C=C1/N=C(c2ccccc2)OC1=O`, the Potency is reported as inconclusive: 22.4 µM [quencher, side channel, single point].
`O=C(Nc1ccc2nccnc2c1)c1cnccn1` was tested, and the Potency was inconclusive: 14.1 µM [quencher, side channel, partial curve].
In the case of `COC(=O)C(CCSC)NC(=O)c1cccc([N+](=O)[O-])c1` (stereo not given), the Potency is reported as inconclusive: 12.6 µM [quencher, side channel, partial curve].
In the case of `COc1ccc(Oc2c(Cl)cnn(-c3ccc(F)cc3)c2=O)cc1`, the Potency is reported as inconclusive: 25.1 µM [quencher, side channel, partial curve, poor fit].
With `CCC1(C)OC(=O)N(CCCn2ccnc2C)C1(C)O` (stereo not given) the “activity change, negative = inhibition” value was inactive: -0.937%.
`Cc1ccc(-c2cc(-c3c(C)nn(C)c(=O)c3N)[nH]n2)cc1` was tested, and the Potency was inconclusive: 11.2 µM [quencher, side channel, partial curve].
In the case of `COCCn1c(SCC(=O)Nc2sc(C)c(C)c2C#N)nnc1C(C)C`, the “activity change, negative = inhibition” value is reported as inactive: 0.0763%.
`C/C(=C1/SC(N2CCCC2)=NC1=O)c1ccc(Br)cc1` was tested, and the Potency was inconclusive: 20 µM [quencher, side channel, single point].
`CCC(=O)Nc1cc(-c2cc3ccccc3oc2=O)ccc1OC` was tested, and the Potency was inconclusive: 15.8 µM [quencher, side channel, partial curve].
With `CN1CCN(c2ccc(NC(=O)c3cc([N+](=O)[O-])ccc3N3CCOCC3)cc2)CC1` the Potency was inconclusive: 15.8 µM [quencher, partial curve].
For `O=C(O)CC/C(=C\c1ccc2c(c1)OCO2)c1nc2ccccc2s1`, the Potency was inconclusive: 35.5 µM [quencher, side channel, single point].
In the case of `CC(=O)Nc1cccc2c1C(=O)N(c1ccc(OC(C)=O)cc1)C2=O`, the Potency is reported as inconclusive: 7.94 µM [quencher, side channel, full curve].
In the case of `O=[N+]([O-])c1ccc(-c2nc(Nc3cccc(O)c3)c3ccccc3n2)cc1`, the Potency is reported as inconclusive: 31.6 µM [quencher, side channel, single point].
With `O=C1N=C(N2CCN(c3ccccc3)CC2)S/C1=C\c1ccco1` the Potency was inconclusive: 15.8 µM [quencher, side channel, partial curve].
In the case of `Cc1occc1C(=O)NNC(=O)COc1ccc(Br)cc1Br`, the “activity change, negative = inhibition” value is reported as inactive: 0.704%.
For `Nc1cc(=O)[nH]c(SCC(=O)Nc2nc3ccc([N+](=O)[O-])cc3s2)n1`, the Potency was inconclusive: 17.8 µM [quencher, side channel, partial curve].
For `Cc1ccccc1CSCc1nc2ccccc2[nH]1`, the Potency was inconclusive: 0.282 µM [inhibitor, full curve, poor fit].
With `CC1(C)CC(=O)C(C=Nc2ccc3[nH]ncc3c2)=C(O)C1` the Potency was inconclusive: 10 µM [quencher, side channel, partial curve].
In the case of `COc1ccc(/C=C/c2c(-c3ccc(OC)cc3)sc3ccc(N4CCOCC4)cc23)cc1`, the “activity change, negative = inhibition” value is reported as inactive: 7.33%.
For `COc1cc(/C=N/NC(=O)c2ccncc2)ccc1OCc1cnc(Cl)s1`, the Potency was inconclusive: 17.8 µM [quencher, side channel, partial curve].
For `CN(C)CCNC(=O)C(=O)c1c(-c2ccccc2)cc2ccccn12`, the Potency was inconclusive: 17.8 µM [quencher, side channel, partial curve].
For `CCC(=O)N1N=C(c2ccccc2)CC1c1ccc([N+](=O)[O-])cc1` (stereo not given), the Potency was inconclusive: 14.1 µM [quencher, side channel, single point].
With `O=C(CN1CCCC1)Nc1ccc(F)cc1` the Potency was inconclusive: 17.8 µM [quencher, side channel, partial curve].
With `C=CCOC(=O)C(C#N)c1nc2ccccc2nc1N1CCN(Cc2ccc3c(c2)OCO3)CC1` (stereo not given) the “activity change, negative = inhibition” value was inactive: 6.35%.
For `CN(CCC#N)C(=O)COC(=O)c1ccccc1C(=O)c1ccc(Cl)c([N+](=O)[O-])c1`, the Potency was inconclusive: 15.8 µM [quencher, side channel, partial curve].
With `Cc1ccc(Cn2c(=N)c(C(=O)NC3CCCCC3)cc3c(=O)n4ccccc4nc32)cc1` the Potency was inconclusive: 5.01 µM [quencher, side channel, partial curve].
For `O=S(=O)(NCc1ccccn1)c1cccc2nsnc12`, the Potency was inconclusive: 25.1 µM [quencher, single point].
With `N#CC1=C(N)OC2=C(C(=O)CCC2)C12C(=O)N1CCCc3cccc2c31` (stereo not given) the Potency was inconclusive: 8.91 µM [quencher, side channel, single point].
`COc1ccc(-n2nc(C(=O)NCC(=O)N3CCN(Cc4ccccc4)CC3)c3ccccc3c2=O)cc1` was tested, and the Potency was inconclusive: 14.1 µM [quencher, side channel, partial curve].
`COc1ccc(/C=C2\N=C(SC)N(c3ccccc3OC)C2=O)cc1` was tested, and the Potency was inconclusive: 20 µM [quencher, side channel, single point].
For `O=C(N/N=C/c1cccnc1)c1cccc(NC(=O)c2ccc(Cl)cc2)c1`, the Potency was inconclusive: 0.178 µM [quencher, side channel, full curve].
`Cc1ccc(CN=c2c([N+](=O)[O-])nn(-c3cccc(Cl)c3)n2O)cc1` was tested, and the Potency was inconclusive: 15.8 µM [quencher, side channel, partial curve].
`NC(=O)c1sc2nc3c(c(-c4ccco4)c2c1N)CCC3` was tested, and the Potency was inconclusive: 15.8 µM [quencher, side channel, partial curve].
In the case of `O=C(Cc1cccs1)N=Nc1c(O)[nH]c2ccccc12`, the Potency is reported as inconclusive: 15.8 µM [quencher, side channel, partial curve].
For `COc1ccc(-c2cc(-c3c(O)c(OC)c4occc4c3OC)[nH]n2)cc1`, the “activity change, negative = inhibition” value was inactive: -1.17%.
`CCN(CC)CCN(C(=O)/C=C/c1cccs1)c1nc2ccc(F)cc2s1` was tested, and the “activity change, negative = inhibition” value was inactive: -6.65%.
For `CC1=Nn2c(nnc2-c2cc(-c3ccccc3)n[nH]2)SC1`, the Potency was inconclusive: 7.08 µM [quencher, side channel, single point].
With `NC(=O)Cn1cc(/C=N\NS(=O)(=O)c2ccc(F)cc2)c2ccccc21` the Potency was inconclusive: 11.2 µM [quencher, side channel, partial curve].
In the case of `CC(=O)Nc1ccc(Nc2nc(C)c([N+](=O)[O-])c(Nc3ccc(NC(C)=O)cc3)n2)cc1`, the Potency is reported as inconclusive: 2.51 µM [quencher, full curve, poor fit].
In the case of `O=S(=O)(c1ccccc1)N1CCN(C(c2ccccc2)c2ccc(OC(F)(F)F)cc2)CC1` (stereo not given), the “activity change, negative = inhibition” value is reported as inactive: -10.6%.
With `COc1ccc(CNCc2cc3c(cc2[N+](=O)[O-])OCO3)cc1` the Potency was inconclusive: 15.8 µM [quencher, side channel, partial curve].
For `O=[N+]([O-])c1cccc(/C=C/c2ccncc2)c1`, the Potency was inconclusive: 14.1 µM [quencher, side channel, partial curve].
For `COc1ccc(/C=C/C(=O)N2CCN(S(=O)(=O)c3ccccc3)CC2)cc1OC`, the Potency was inconclusive: 22.4 µM [quencher, side channel, single point].
With `COCCNC(=O)c1cccc2c1-c1ccccc1C2=O` the Potency was inconclusive: 15.8 µM [quencher, partial curve].
With `COc1ccc(O)c(/C=C(\C#N)C(=O)Nc2ccccn2)c1` the Potency was inconclusive: 14.1 µM [quencher, side channel, partial curve].
With `CC(C)CC(=O)NC(c1ccccc1)c1c(O)ccc2ccccc12` (stereo not given) the “activity change, negative = inhibition” value was inactive: -1.2%.
In the case of `Cc1ccc2nc(N(CCCN(C)C)C(=O)CN3C(=O)c4ccccc4C3=O)sc2c1`, the “activity change, negative = inhibition” value is reported as inactive: -0.89%.
For `COc1ccc(-c2cn3cccnc3n2)cc1NC(=O)C(C)Oc1ccccc1` (stereo not given), the Potency was inconclusive: 11.2 µM [quencher, side channel, partial curve].
`COC(=O)CCN(C(=O)c1ccc(Cl)c([N+](=O)[O-])c1)c1ccccn1` was tested, and the Potency was inconclusive: 39.8 µM [quencher, side channel, single point].
`CCCSc1cc(N2CCCC2)nc(-c2ccccc2)n1` was tested, and the “activity change, negative = inhibition” value was inactive: -5.01%.
`CN(c1ccccc1)S(=O)(=O)c1nnc(NC(=O)COc2ccccc2)s1` was tested, and the “activity change, negative = inhibition” value was inactive: 14.5%.
For `CCOc1cccc(C(=O)NC(=S)Nc2ccc(N3CCCC3)cc2)c1`, the Potency was inconclusive: 28.2 µM [quencher, side channel, partial curve].
For `CC(=O)N1N=C(c2ccco2)CC1c1ccc(C)cc1` (stereo not given), the Potency was inconclusive: 5.62 µM [quencher, side channel, full curve].
With `CC(=O)N1CCN(C2=NC(=O)/C(=C\c3cccs3)S2)CC1` the Potency was inconclusive: 14.1 µM [quencher, side channel, partial curve].
With `Cc1ccc[n+](-c2nc([O-])sc2C=O)c1` the Potency was inconclusive: 25.1 µM [quencher, side channel, single point].
For `CCC(=O)c1ccc(OCc2ccc(C(=O)c3ccccc3)cc2)cc1`, the Potency was inconclusive: 25.1 µM [fluorescent, side channel, single point].
